Source: the RNAGym collection of RNA variant scans (doi:10.1073/pnas.2313332121)
This sample is rich in variants without activity.

B1: TPR 5TU (parent)
chain: GGAUCUUCUCGAUCUAACAAAAAAGACAAAUCUGCCACAAAGCUUGAGAGCAUCUUCGGAUGCAGAGGCGGCAGCCUUCGGUGGCGCGAUAGCGCCAACGUUCUCAACUAUGACACGCAAAACGCGUGCUCCGUUGAAUGGAGUUUAUCAUG

Variants of: B1
Experiment: polymerase ribozyme fitness, log enrichment relative to wild type (log ratio); higher = more active; in vitro selection for triplet polymerase activity
In short: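 Fitness measures genotype enrichment against wild-type enrichment on a logarithmic scale, with inverse-variance-weighted averaging of replicates. The logarithm is base 2, and genotypes were kept only with ≥10 input reads and ≥1 read per output in Illumina sequencing. The sequenced libraries came from one triplicate in vitro selection round, including frozen incubation at −7 °C, of PCR-built, transcribed mutant libraries of each subunit of a heterodimeric triplet polymerase ribozyme.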

Variant | polymerase ribozyme fitness (log ratio)
A21C C35A U45A C85U A91G G143U | ≤ -4.2
A21G G83C U90C U146A A150C | ≤ -4.2
A21G U55G U56G U61G U77A G94U C99G | ≤ -4.2
A21G C43G G81U A91C C95G A110U G136C U146C | ≤ -4.2
A21U U55G C93A U139C U151A | ≤ -4.2
A21C A41U A60G C75U C87U A107U C149A | ≤ -4.2
A22C A28U U45A U61G C87U C118U | ≤ -4.2
A21U A30G | -3.62
A21U A91C | ≤ -4.2
A22C G50A G100A C131A U134C | ≤ -4.2
A21U G62A | 0.138
A22C A26U U31C A37C U56C A73C A91C | ≤ -4.2
A21C A41C A73G G80C C95U C99G C118G C149A | ≤ -4.2
A21C G25A U31G A66G C69A C85A G92A | ≤ -4.2
A22C C27U U44A G74A G86A G88A C125U A137U | ≤ -4.2
A21U C51U A106U | -2.08
A21C C51A C75G G80A C114G A150G G152U | ≤ -4.2
A21U G92A | -2.72
A21G C51U G59A C85G A137U | ≤ -4.2
A22C A40G A60U G68C C99U | ≤ -4.2
A21C C76A C79G U127G | ≤ -4.2
A21C G46C C69U G86U C87U A150U | ≤ -4.2
A22C C131G | -3.49
A21C A39G U55G G94A U134G U135A A138G | ≤ -4.2

Variant | polymerase ribozyme fitness (log ratio)
A21U C95U C99U | -0.768
A21G A49C A52C C69A C76G U78G A91G | ≤ -4.2
A21U G62A G83U A113C G140U U146A | ≤ -4.2
A21U G48C G83A C118G U145A | -2.76
A21G G42U A66U C69A C76U | ≤ -4.2
A21G G50C U56A C76A G92U | ≤ -4.2
A21U C35U U45A A49C G58C C87U G128A | ≤ -4.2
A21G G48U C87G | ≤ -4.2
A21U C79G C96U C105U U134A | ≤ -4.2
A21C G83C C105G A115G U145A | ≤ -4.2
A22C C57U C75A U78G A91U A119C A121G | ≤ -4.2
A21U C43U A60C G62A C69U C93U C103G U135G | ≤ -4.2
A22C A26U C75G U135A | ≤ -4.2
A21C C87U | 0.0419
A21C G50A A122U | -1.39
A21U A23U A29C C35G G48A | ≤ -4.2
A21C U56A C76A G84C C87U U90G U127G | ≤ -4.2
A21G U45A G48C C51G C57U A110U C116U U144C | ≤ -4.2
A22C G46A G59C A91C C99G U101G C116G A138C | ≤ -4.2
A21U A26C U55A A73G C85G U127A | ≤ -4.2
A21U U31A C85A | -0.251
A21G A52C C75G G92C G94C A106C A147C | ≤ -4.2
A22C C125U | -0.469
A22C C43U A89U A115C G124C | ≤ -4.2

Variant | polymerase ribozyme fitness (log ratio)
A21U C99G G100U G126A G141U A142G A150C | ≤ -4.2
A21U U33A G34A C79A C118U C125A C132U G133A A142C U148G | ≤ -4.2
A21G A30U C35A A66U | ≤ -4.2
A21C G86U A110G C125U U148C | ≤ -4.2
A21G G88U | ≤ -4.2
A22C C108U G143C U144G | ≤ -4.2
A21U G46C G59C C93G | ≤ -4.2
A21U A30U G62A G83A A107G A120U U134C G140U | ≤ -4.2
A22C A49C | ≤ -4.2
A21C G34U C63A G84A | ≤ -4.2
A21G C36A C118U U135C | ≤ -4.2
A21U A26U C57U G84U C95U A97U C99A U144G | ≤ -4.2
A22C A39U A41C U45A C75U G86C G128U | ≤ -4.2
A21U C85U | -0.171
A21G G84C A113U | -4.09
A21U A24C A26U U44G A89U A91G G128U G140C U145A | ≤ -4.2
A22C A26C A30G A37U U55A A66G G84C C85A C129G U148C | ≤ -4.2
A21G A23G A30G G68A G71C C76A U77A G92U C93U A97G | ≤ -4.2
A21U C57A A89U | -0.571
A21G C87A A113U G141A U146C | ≤ -4.2
A21U C32G U44A C57G G94A G100C | ≤ -4.2
A21U C32A G70A U82C C87U C96A A97G G152U | ≤ -4.2
A21C C85G C103U G136A | -1.18
A21C A60C C96U A106G C125U C149G | ≤ -4.2

Variant | polymerase ribozyme fitness (log ratio)
A21C C43G G48A G83U C85A | ≤ -4.2
A22C C35U A40U C54U U148C | ≤ -4.2
A21G G42A G50C C93G G136U | ≤ -4.2
A21C C69A | -1.75
A21U A29U C35G A37U C75A C123U | ≤ -4.2
A21C C93A | -2.02
A22C G50C U61A C87A | ≤ -4.2
A21C C57G | -0.649
A21U G94U C95A U104G G117C C129A | ≤ -4.2
A21G C32G A40G A41U C51U U53C G59A G83U C129U U134C G140C | ≤ -4.2
A21U A23U G59C U77A C99G G117A A137U U139A | ≤ -4.2
A21C G25U C36U G48A A49C C57U C75G C95U | ≤ -4.2
A21U U61A C93A U102G A121C | ≤ -4.2
A21G G50U U56C G92A C131A | ≤ -4.2
A21U C35G U55A A120U G141C | ≤ -4.2
A21U A28C A40U A60U C63A A66C G94U C116U G133C G140C | ≤ -4.2
A21U G50C U53A G68A G80A U145A | ≤ -4.2
A21G A39C C108A A122C G133C G143C | ≤ -4.2
A21C A49G G84C G92U G117C | ≤ -4.2
A22C C75G G140C C149G | ≤ -4.2
A21U C87A A107C | ≤ -4.2
A21G G50A C63G C69A G70U A106G A107U U148G | ≤ -4.2
A21U A30G A47G U53A G94U G124U U144C | ≤ -4.2
A21G G42U C96U G136U | ≤ -4.2

Variant | polymerase ribozyme fitness (log ratio)
A21G G141A | 1.12
A21C C43A A113G | ≤ -4.2
A21G C116G | 1.2
A21C C43A G50C G74C C76A C87A A91G A119G | ≤ -4.2
A22C G34C G48A G86C A121G | ≤ -4.2
A22C C36U G58A A60C G74U A113U U146C | ≤ -4.2
A21G C85A | -1.12
A21G U45A C79U U82A C85U A89U G140U | ≤ -4.2
A21G C27G A29C G92A G100C A119C C129G U151C | ≤ -4.2
A21C C43A | ≤ -4.2
A21C G25C A52C A89U C118A A119C | -3.52
A22C A47C U56A C96U U101A C105G A120U | ≤ -4.2
A21C C57G A107C G124U | ≤ -4.2
A22C C43U A49G C51A G58U C95U U139G U146G | ≤ -4.2
A21C G68A C114U U144G | ≤ -4.2
A22C A24C G25A A40G G74A U77C G141A | ≤ -4.2
A22C G25C G92C U127G A138G | ≤ -4.2
A21U A29U G67U C69G G133U | ≤ -4.2
A21C U78G C116A | ≤ -4.2
A21U G46U U55A U56G G84A U151G | ≤ -4.2
A21C G48A G92U C125A U146G C149G | ≤ -4.2
A21G A28U C43A G48C U56G C79G G88U C131G G133A | ≤ -4.2
A21G G42A A49C A66U U82C C87U U135G U145A U148A | ≤ -4.2
A21C A30G U33C G58U | ≤ -4.2

Variant | polymerase ribozyme fitness (log ratio)
A21U U44A C79A G84U C105U A150C | ≤ -4.2
A21U G84A A89G | -1.44
A21G U31G A49C C79U G86U A150G | ≤ -4.2
A21C U55A C96A A110U | ≤ -4.2
A21U A29U C57A A91U C95G A106C C114U A142C U145C C149G | ≤ -4.2
A21U A23G A26G G84U G86U G136U U148G | ≤ -4.2
A22C G50C U104G | ≤ -4.2
A21U G48A G143A | ≤ -4.2
A21U G59C A64U G133C A142C | ≤ -4.2
A22C C51G G80C | ≤ -4.2
A21C A64G A73C C87A C114U | ≤ -4.2
A21G A40C A49G A73G U90G C93G G94C C118A G126A | ≤ -4.2
A21G G25C C51U C93A | ≤ -4.2
A21U A47C C76G U77G | ≤ -4.2
A21C C27U A40G U82G G84A C96G | ≤ -4.2
A21G A28U A37G A73G A91C A106C | ≤ -4.2
A21U C27G C38U U56A G71A C99A U139A A147C | ≤ -4.2
A22C A60C G88C | ≤ -4.2
A21U C96G G143U | -3.69
A21U A47C C69G U90C U135A A137G | ≤ -4.2
A21C G84U U90C C116A A137C A138G | ≤ -4.2
A21C G92A G128U U144G U145G | ≤ -4.2
A21U C36A C118G U139C U146C | ≤ -4.2
A22C G25U C38U A91C C105U C118U | ≤ -4.2

Variant | polymerase ribozyme fitness (log ratio)
A21U C87U C96U C131G | ≤ -4.2
A21C G81C G88A A107G | ≤ -4.2
A21G A23G G128C | ≤ -4.2
A21U U31A C35A C103G | ≤ -4.2
A21C C57U G58C C79G A120C C129U | ≤ -4.2
A21G A39C C69A C125A U151G | ≤ -4.2
A21C G42C U61A A66C G84A C93A C95G | ≤ -4.2
A21U A24U A28G G50C C54U C57A G94C C96U | ≤ -4.2
A21U A26U C38G G83A C114A | ≤ -4.2
A21C C51U A106G | -0.144
A21C C32U A49C G50A U53A U56C G58A | ≤ -4.2
A22C A28U A66G A91C G92C C99A A121U G143U U151C | ≤ -4.2
A21U U82G C93G | -3.69
A21U A24C A41C A47G C63A G68A U145G | ≤ -4.2
A21C U77A G84A C85U | ≤ -4.2
A22C G48A U55A G62U C87U U101G U151A | ≤ -4.2
A21C G67C G80U A110U | ≤ -4.2
A22C A39C C96U U139A | ≤ -4.2
A21U A23C C38A C99G A142C | ≤ -4.2
A21G A37C G46A G70U G74A G84A C87U C93U C114G | ≤ -4.2
A21U C96A G136A | 0.203
A21U A26U U55A G58A A91C C118G | ≤ -4.2
A21U A30U A37U C103U | ≤ -4.2
